Measurements: publication PMC5700166
The list shows a part of the results, in another mix than the full data. The list includes weakly bound sequences.

These sequences were tested against T1, GST-Dm-Relish (UniProt Q94527) (assay: protein-binding microarray (PBM)). Conditions: PBM: ~300 nM protein, 6 mM HEPES pH 7.8, 80 mM KCl, 0.5 mM EDTA, 0.5 mM EGTA, 6% glycerol, 35 ng/ul poly-dIdC, 1% milk, 1 h, room temperature; Ap Aiptasia and Nv Nematostella (sea anemones) / Co Capsaspora / Aq Amphimedon (sponge) / Dm Drosophila / Hu human; RHD is the Rel homology domain; high values mean tight binding; most listed sequences are background and not binding sites; double strand, one strand shown.
T1 sequence: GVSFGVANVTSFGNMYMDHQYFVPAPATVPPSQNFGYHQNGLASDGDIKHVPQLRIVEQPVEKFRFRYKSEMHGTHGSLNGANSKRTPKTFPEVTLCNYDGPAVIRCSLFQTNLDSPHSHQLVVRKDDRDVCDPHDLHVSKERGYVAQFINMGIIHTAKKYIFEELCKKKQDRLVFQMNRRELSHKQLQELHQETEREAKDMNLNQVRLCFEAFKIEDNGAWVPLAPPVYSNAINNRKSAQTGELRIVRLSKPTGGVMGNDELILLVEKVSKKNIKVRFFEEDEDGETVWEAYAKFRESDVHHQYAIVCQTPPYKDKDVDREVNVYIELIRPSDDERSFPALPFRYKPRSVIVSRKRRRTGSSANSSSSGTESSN

| Sequence | binding signal [z-score] |
| --- | --- |
| CCGATTAACATCAAAAATCCCAGTGATGTTAATCGGGTCTTGATTCGCTTGACGCTGCTG | 7.35 |
| CCGATTAACATCATAATCCCCCATGATGTTAATCGGGTCTTGATTCGCTTGACGCTGCTG | 5.67 |
| CCGATTAACATCACCTCCCCCCCTGATGTTAATCGGGTCTTGATTCGCTTGACGCTGCTG | 4.13 |
| CCGATTAACATCAACAATCCCCCTGATGTTAATCGGGTCTTGATTCGCTTGACGCTGCTG | 5.46 |
| CCGATTAACATCAACTACCCCCCTGATGTTAATCGGGTCTTGATTCGCTTGACGCTGCTG | 3.4 |
| CCGATTAACATCAAACAGGGAAATGATGTTAATCGGGTCTTGATTCGCTTGACGCTGCTG | 0.683 |
| CCGATTAACATCAAGGAACTCCCTGATGTTAATCGGGTCTTGATTCGCTTGACGCTGCTG | 5.06 |
| CCGATTAACATCAGGGGGGATACTGATGTTAATCGGGTCTTGATTCGCTTGACGCTGCTG | 5.55 |
| CCGATTAACATCAGGGCTCCCCATGATGTTAATCGGGTCTTGATTCGCTTGACGCTGCTG | 3.88 |
| CCGATTAACATCAAGTGTTTCCCTGATGTTAATCGGGTCTTGATTCGCTTGACGCTGCTG | 4.7 |
| CCGATTAACATCAGGGAATTAGATGATGTTAATCGGGTCTTGATTCGCTTGACGCTGCTG | 0.874 |
| CCGATTAACATCAAATTTCCCAATGATGTTAATCGGGTCTTGATTCGCTTGACGCTGCTG | 2.51 |
| CCGATTAACATCAAATTTACCCCTGATGTTAATCGGGTCTTGATTCGCTTGACGCTGCTG | 3.85 |
| CCGATTAACATCAAGGGGTCCCCTGATGTTAATCGGGTCTTGATTCGCTTGACGCTGCTG | 6.15 |
| CCGATTAACATCAAAGTGTCCCCTGATGTTAATCGGGTCTTGATTCGCTTGACGCTGCTG | 1.98 |
| CCGATTAACATCAAAAGTCCCCATGATGTTAATCGGGTCTTGATTCGCTTGACGCTGCTG | 8.38 |
| CCGATTAACATCAAATTTTCCCGTGATGTTAATCGGGTCTTGATTCGCTTGACGCTGCTG | 3.36 |
| CCGATTAACATCAGGGTTTTTTATGATGTTAATCGGGTCTTGATTCGCTTGACGCTGCTG | 5.89 |
| CCGATTAACATCAGGCAATTCCCTGATGTTAATCGGGTCTTGATTCGCTTGACGCTGCTG | 2.03 |

| Sequence | binding signal [z-score] |
| --- | --- |
| CCGATTAACATCACCTTGGGAAATGATGTTAATCGGGTCTTGATTCGCTTGACGCTGCTG | 0.816 |
| CCGATTAACATCACACCACCCCCTGATGTTAATCGGGTCTTGATTCGCTTGACGCTGCTG | 2.4 |
| CCGATTAACATCAGGCCTTTCCCTGATGTTAATCGGGTCTTGATTCGCTTGACGCTGCTG | 5.87 |
| CCGATTAACATCAAGGAATTCCCTGATGTTAATCGGGTCTTGATTCGCTTGACGCTGCTG | 8.03 |
| CCGATTAACATCAAGGGGGGATATGATGTTAATCGGGTCTTGATTCGCTTGACGCTGCTG | 4.29 |
| CCGATTAACATCAGGCATACCCCTGATGTTAATCGGGTCTTGATTCGCTTGACGCTGCTG | 1.3 |
| CCGATTAACATCAGGAACACCCCTGATGTTAATCGGGTCTTGATTCGCTTGACGCTGCTG | 3.5 |
| CCGATTAACATCATTTCCCTTGATGATGTTAATCGGGTCTTGATTCGCTTGACGCTGCTG | 0.0348 |
| CCGATTAACATCACAATTCCCCCTGATGTTAATCGGGTCTTGATTCGCTTGACGCTGCTG | 5.44 |
| CCGATTAACATCAGAGAATTCCCTGATGTTAATCGGGTCTTGATTCGCTTGACGCTGCTG | 4.51 |
| CCGATTAACATCAAAAATTACCCTGATGTTAATCGGGTCTTGATTCGCTTGACGCTGCTG | 6.42 |
| CCGATTAACATCAGCAATTTCCCTGATGTTAATCGGGTCTTGATTCGCTTGACGCTGCTG | 1.78 |
| CCGATTAACATCAAAAAATCCCTTGATGTTAATCGGGTCTTGATTCGCTTGACGCTGCTG | 8.1 |
| CCGATTAACATCAGGGACAACCCTGATGTTAATCGGGTCTTGATTCGCTTGACGCTGCTG | 3.09 |
| CCGATTAACATCATCCTGGGAAATGATGTTAATCGGGTCTTGATTCGCTTGACGCTGCTG | 0.513 |
| CCGATTAACATCAAGGGGGGGAATGATGTTAATCGGGTCTTGATTCGCTTGACGCTGCTG | 4.96 |
| CCGATTAACATCAACGAATCCCCTGATGTTAATCGGGTCTTGATTCGCTTGACGCTGCTG | 4.84 |
| CCGATTAACATCAGGGACTACCCTGATGTTAATCGGGTCTTGATTCGCTTGACGCTGCTG | 7.1 |
